Reference: patent US20130310317A1 (Bristol-Myers Squibb, published 2013)

Target: human IGF-IR on cells (human, UniProt P08069 31-1367)
Assay: cell-based or functional assay

B1: 385A08-Fc (Fc fusion)
chain: GVSDVPRDLEVVAATPTSLLISWSARLKVARYYRITYGETGGNSPVQEFTVPKNVYTATISGLKPGVDYTITVYAVTRFRDYQPISINYRTEIDKPSQDPGS[human IgG1 Fc with changes not written out]
  IC50, proliferation of H929 cells (3H-thymidine): 0.00015 µM
  IC50, proliferation of Rh41 cells (3H-thymidine), Trial 1: 0.0486 µM
  IC50, proliferation of Rh41 cells (3H-thymidine), Trial 2: 0.0394 µM
  IC50, proliferation of Rh41 cells (3H-thymidine), average of trials: 0.044 µM
